Each structure is given as a SMILES string. About 800 (1.6%) of roughly 50,000 compounds showed an effect of 50% or more. The list shows a part of the results.

The test addresses Bcl-2-like protein 10 (Homo sapiens) (UniProt Q9HD36). Kind of test: TR3 peptide-Bcl-B binding displacers, biochemical primary FP assay, phenotype converters (AID 1240).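 Note: 0% = Bcl-B with tracer peptide and DMSO and 100% = tracer peptide lacking Bcl-B.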 Conditions: GST-Bcl-B / FITC-TR3 peptide fluorescence polarization; stronger effect = higher value; compound at 3.75 mg/L.
Chain of UniProt Q9HD36 (Q9HD36 whole entry, looked up): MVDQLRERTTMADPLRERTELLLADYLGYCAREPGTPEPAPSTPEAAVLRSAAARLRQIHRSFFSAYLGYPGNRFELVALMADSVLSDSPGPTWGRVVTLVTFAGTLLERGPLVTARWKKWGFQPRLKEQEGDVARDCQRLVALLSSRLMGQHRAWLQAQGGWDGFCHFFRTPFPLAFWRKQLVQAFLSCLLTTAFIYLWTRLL
`COc1cc(OC)cc(C(=O)N2CCN(Cc3ccccc3C(F)(F)F)CC2)c1`: the displacement is -12.7%.

`CS(=O)(=O)N(CC(=O)Nc1ccccc1Cl)c1ccc(Cl)cc1`: the displacement was 11.7%.

For the molecule `CCP(=O)(CC)CCP(=O)(c1ccccc1)c1ccccc1`, the displacement is -2.2%.

For `O=C(c1cccc(Cl)c1)N1CCCc2ccccc21`, the displacement came out at 5.7%.

For `O=c1sc2ccccc2c(N2CCOCC2)c1[N+](=O)[O-]`, the displacement is -19.3%.

For `COc1cccc(-n2c(O)c(C=Nc3ccc4c(c3)OCO4)c(=O)[nH]c2=O)c1`, the displacement was determined as 9.2%.

Turning to `CCCn1c(/N=C/c2ccc3c(c2)OCO3)nc2ccccc21`, the displacement is 5.7%.

For the molecule `CC(=O)c1cccc(NC(=O)/C(=C\c2ccc(Br)cc2)NC(=O)c2ccc(C)cc2)c1`, the displacement amounted to 2.4%.

Turning to `Cc1ccc(C(=O)Nc2ccc(NC(=O)c3ccccc3)cc2)cc1S(=O)(=O)N1CCOCC1`, the displacement is -9%.

With `CCN(CC)CCN1C(=O)C(O)=C(C(=O)/C=C/c2ccccc2)C1c1ccc(F)cc1` (centres undefined), the displacement was -2.7%.

For `Cc1cccc(C(=O)Nc2sc3c(c2C(=O)N2CCN(C)CC2)CCC3)c1`, the displacement is 0.9%.

For `CCN(CC)c1ccc(C(=O)NCc2ccco2)cc1`, the displacement is -2.8%.

Regarding `O=C(CCCOc1ccccc1)Nc1ccc(F)cc1`, the displacement worked out at 13.1%.

Take `Cc1c(-n2c(O)c(C3=c4ccccc4=NC3=O)sc2=O)c(=O)n(-c2ccccc2)n1C`: the displacement was -7%.

In the case of `CC(=O)N1c2ccccc2NC2=C(C(=O)CC(c3ccccc3)C2)C1c1cccs1` (centres undefined), the displacement was -21.7%.

`CCC(Oc1ccc(Br)cc1)C(=O)NN` (centres undefined): the displacement was -6%.

As to `COc1ccc([N+](=O)[O-])cc1NS(=O)(=O)c1cc(Cl)ccc1Cl`, the displacement was 6.5%.

Consider `COc1cc(OC)cc(C(=O)Nc2cc(-c3nc4cc(Cl)ccc4o3)ccc2C)c1`, for which the displacement is 110%.

As for `COCCOC(=O)c1c(C)oc2ccc(OCc3ccc([N+](=O)[O-])cc3)cc12`, the displacement was 11.7%.

Turning to `O=C(/C=C/c1cccc([N+](=O)[O-])c1)Nc1cccc(-c2nc3ccccc3s2)c1`, the displacement is 17.4%.

`O=C(CCCOc1ccc(Cl)cc1Cl)Nc1ccc(F)c(Cl)c1`: the displacement turned out to be 3.1%.

On to `O=c1/c(=C/c2ccccc2OCCOc2ccc([N+](=O)[O-])cc2)sc2nc3ccccc3n12`, for which the displacement was 13.9%.

Turning to `COC(=O)c1ccccc1N(Cc1ccc(Cl)cc1)S(=O)(=O)c1ccc(C)cc1`, the displacement came to 6.3%.

For the molecule `COc1ccccc1-c1c(C(F)(F)F)oc2cc(OC(=O)C(C)(C)C)ccc2c1=O`, the displacement stood at 14.4%.

Turning to `Cc1ccc(N2C(=O)CC(N3CCN(c4ccc([N+](=O)[O-])cc4)CC3)C2=O)c(C)c1` (centres undefined), the displacement turned out to be 1%.

As for `COc1ccccc1NC(=O)CN(c1ccc(C)cc1)S(=O)(=O)c1ccc(F)cc1`, the displacement stood at 9%.

For the molecule `Brc1ccccc1OCCCN1CCCC1`, the displacement turned out to be 11.5%.

For the molecule `CSc1ccc(/C=C2/SC(=O)N(CN3CCCCC3)C2=O)cc1`, the displacement was -1.4%.

Regarding `CC1CC(N(c2ccccc2)S(=O)(=O)c2ccc(Cl)cc2)c2ccccc2N1` (centres undefined), the displacement came to 0.7%.

For the molecule `c1ccc2oc(SCCCCCSc3nc4ccccc4o3)nc2c1`, the displacement was 3.6%.

In the case of `O=C1/C(=C\c2ccc(-c3cccc(C(F)(F)F)c3)o2)SC(=S)N1C1CCCCC1`, the displacement is 23.8%.

Consider `COc1ccccc1CC(=O)Nc1cccc([N+](=O)[O-])c1`, for which the displacement is -8.5%.

Take `COc1ccc(OCC(=O)Nc2cccc([N+](=O)[O-])c2)cc1`: the displacement is -7.9%.

As to `Cc1cc(C)nc(NS(=O)(=O)c2ccc(NC(=S)NC(=O)c3ccc(F)c(F)c3)cc2)n1`, the displacement is -5%.

For the molecule `CC(C)(C)NC(=O)c1cc2ccccc2o1`, the displacement is 8.5%.

On to `O=C(/C=C/c1ccc(-c2ccccc2[N+](=O)[O-])o1)Nc1cccnc1`, for which the displacement was found to be 73.1%.

As for `CCCCOc1ccc(-c2cc(C(=O)O)c3ccccc3n2)cc1`, the displacement was found to be 9.8%.

On to `CCC1(C)Cc2ccccc2/C(=C/C(=O)NC)N1` (centres undefined), for which the displacement turned out to be 18.6%.

Consider `COc1nccc(Nc2ccccc2)c1C#N`, for which the displacement is -0.1%.

Take `OCCNC(Nc1ccc(Cl)cc1)=C(c1ccccc1)c1ccccc1`: the displacement is -9%.

In the case of `O=C(/C=C\c1ccco1)Oc1ccc(/C=N\NC(=O)c2cncc(Br)c2)cc1`, the displacement worked out at 5.9%.

For the molecule `COc1ccc(-c2cc(C(=O)Nc3ccccc3Cl)c3ccccc3n2)cc1`, the displacement amounted to 12.2%.

In the case of `c1ccc(CN2CCC(N3CCNCC3)CC2)cc1`, the displacement is -0.8%.

Consider `O=S(=O)(c1ccc(Br)cc1)N1CCN(c2ccccc2Cl)CC1`, for which the displacement was 5.4%.

In the case of `O=C(Nc1ccccc1C(=O)N1CCOCC1)c1ccncc1`, the displacement was -4.5%.

Consider `Oc1ccc2ccccc2c1C=Nc1ccc2oc(-c3ccccc3Br)nc2c1`, for which the displacement amounted to 120%.

As for `O=C(O)/C(=C\c1cccc(Br)c1)NC(=O)c1ccccc1`, the displacement came out at 5.7%.

With `CCOC(=O)CN1C(=O)C(O)(CC(=O)c2ccco2)c2ccccc21` (centres undefined), the displacement is -4.5%.

For the molecule `Cc1nn(Cc2ccccc2)c(=O)n(Cc2ccccc2)c1=O`, the displacement is -5%.

On to `Cc1ccccc1NC(=S)N1CCN(c2cccc(Cl)c2)CC1`, for which the displacement is -6.7%.

For `COc1ccc(C(=O)NCC2(c3ccccc3)CCCC2)c(OC)c1`, the displacement is -3.5%.

Regarding `Cc1ccc(C2CC(C(F)(F)F)n3ncc(C(=O)N(Cc4ccccc4)Cc4ccccc4)c3N2)cc1` (centres undefined), the displacement amounted to 3.4%.

Consider `CC(C)OC(=O)c1c(NC(=O)/C=C/C(=O)O)sc2c1CCCCC2`, for which the displacement was -7.2%.

`Cn1cnnc1SCC(=O)c1ccc(-c2ccccc2)cc1`: the displacement is 0%.

Consider `COC(=O)c1ccc(/C=C/C(=O)c2ccc(Cl)cc2)cc1`, for which the displacement was determined as 4.6%.

In the case of `COc1ccccc1CNS(=O)(=O)c1ccc2ccccc2c1`, the displacement is -4%.

On to `COc1ccc(Cc2noc(-c3ccc(Cl)cc3)n2)cc1`, for which the displacement is -7.5%.

`Cc1cc(C)c(S(=O)(=O)Nc2cccc3ccc(C)nc23)c(C)c1`: the displacement was 13%.

In the case of `O=c1ccc2ccc(OCc3ccccc3Cl)cc2o1`, the displacement was 12.8%.

As to `CCOc1cc(/C=C2\SC(N)=NC2=O)cc(Br)c1OS(=O)(=O)c1ccc([N+](=O)[O-])cc1`, the displacement was found to be 18.3%.

Take `Cc1nc2ccccc2n1S(=O)(=O)c1ccc2ccccc2c1`: the displacement turned out to be 12.6%.

In the case of `CC1CN(S(=O)(=O)c2ccccc2[N+](=O)[O-])CC(C)O1` (centres undefined), the displacement was determined as 1.6%.

`O=C(Nc1ccccc1C(=O)N1CCOCC1)c1ccc([N+](=O)[O-])cc1`: the displacement was found to be 3%.

Turning to `COc1ccc(CNCc2ccncc2)cc1OC`, the displacement is 17.8%.

As for `COc1ccc(C(=O)/C=C\Nc2cc(Cl)ccc2O)c(OC)c1`, the displacement is 10.1%.

As for `O=C(COc1ccccc1Cl)NNC(=O)c1ccc(F)cc1`, the displacement is -4%.

With `CN1C(=O)NC(=O)/C(=C/c2cccn2-c2cccc([N+](=O)[O-])c2)C1=O`, the displacement is 115%.

With `COc1ccc(-c2nc3ccccc3o2)cc1NC(=O)c1cc2ccccc2cc1OC`, the displacement was -8.6%.

On to `COc1cc(C(=O)Nc2ccc3nn(-c4ccc(C)c(C)c4)nc3c2)cc(OC)c1OC`, for which the displacement was 0.7%.

The record behind these values is PubChem BioAssay AID1240 (Sanford-Burnham Center for Chemical Genomics, 2008).
